Laboratory results from PubChem BioAssay AID651820 (National Center for Advancing Translational Sciences (NCATS), 2012).
Out of some 340,000 compounds screened, about 12,000 (3.5%) were called active. The shares of active, inactive and inconclusive entries below differ from those in the screen. Calls follow the shape of the dose curve; as a rule, active = well fitted inhibition curve with a large enough effect; inconclusive = small, poorly fitted or top-dose-only effect, or another doubt; inactive = no such curve, though single readings can be large or run the other way. No potency is given beside an inconclusive call; the fits are too rough.

Assay: qHTS Assay for Inhibitors of Hepatitis C Virus (HCV)
Conditions: Huh7.5.1 HCVcc-Cre (HCVcc is cell-culture hepatitis C virus) infection, luciferase reporter, 44 h; activity change, negative = inhibition: at 41.8 µM (top of the series) unless noted
Outline: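 Reporter virus HCVcc-Cre (~0.5 moi) infects cells exposed to compound; seeding density 1,000 cells/well with 4 h settling beforehand. Luminescence, 15 sec read, taken 44 h post-infection following a 15 min RT substrate incubation.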
% is scaled to controls: 0 for no effect and ±100 for the full control effect; potency is read from the fitted curve at half-maximal effect; tags tell the direction and shape of the fitted curve.

Compound	activity change, negative = inhibition	Potency
COc1ccc(Nc2nc3ccccc3c(=O)s2)c(OC)c1	inactive: -7.2%	
CCOc1cc(N2CCOCC2)c(OCC)cc1NC(=O)c1ccc(C)cc1		inconclusive [inhibitor, single point]
O=C(COc1ccccc1F)NNC(=O)Cn1c(=O)cnc2ccccc21		inconclusive [inhibitor, partial curve]
CCN(CC)CCN1C(=O)c2ccccc2NC1c1ccc(N(C)C)cc1 (centres undefined)	inactive: 11.6%	
CCOC(=O)C1CCN(C(=O)c2ccc(S(=O)(=O)Nc3ccccc3OC)cc2)CC1		inconclusive [inhibitor, single point]
CC12CC3(C)CC(C)(C1)CC(NC(=O)N1CCCC1)(C2)C3	inactive: 12.3%	
CCc1nn(CC(=O)NCCCN2CCc3ccccc3C2)c(=O)c2cc3sccc3n12		inconclusive [inhibitor, partial curve]
Cc1cccc(-n2c(SCC(=O)N3CC(=O)Nc4ccccc43)nc3ccccc3c2=O)c1C		inconclusive [inhibitor, partial curve]
CCCCCOc1ccc(CSC2=NCCN2)cc1[N+](=O)[O-]		inconclusive [inhibitor, full curve, poor fit]
Cc1cc(-c2ccc(S(=O)(=O)N(C)c3ccc(C)c(C)c3)s2)on1		active: 11.2 µM
COc1ccccc1/C=C1\SC(N2CCC(C)CC2)=NC1=O		inconclusive [inhibitor, partial curve]
c1ccc(Oc2ccc(-n3cnnn3)cc2)cc1	inactive: 15.8%	
C[C@H](CO)N1C[C@H](C)[C@@H](CN(C)C(=O)Nc2ccccc2)Oc2c(NC(=O)Nc3ccc(C(F)(F)F)cc3)cccc2C1=O		inconclusive [inhibitor, single point]
Cc1ccc(NC(=S)NC2CCSc3ccccc32)cc1 (centres undefined)		inconclusive [inhibitor, single point]
Cc1nc(N2CCN(c3ccccn3)CC2)c2c(C)c(C(=O)Nc3ccc(F)c(Cl)c3)sc2n1		inconclusive [inhibitor, partial curve]
FC(F)(F)c1ccccc1N1CC1c1ccncc1 (centres undefined)	inactive: -7.42%	
O=C(CCS(=O)(=O)c1ccccc1)Nc1cccc2c1C(=O)NC2=O		inconclusive [inhibitor, single point]
CCCCC(=O)Nc1ccc(C(=O)Nc2cc(C(F)(F)F)ccc2Cl)cc1		inconclusive [inhibitor, partial curve]
CCN(CC(=O)Nc1ccccc1C(F)(F)F)C(=O)Cc1sc(C)nc1-c1ccc(F)cc1	inactive: -22.4%	
